Measurements: PubChem BioAssay AID588342 (National Center for Advancing Translational Sciences (NCATS), 2011)
Out of some 360,000 compounds screened, about 25,000 (6.9%) were called active. Inconclusive means that the source gave no clear call. Such entries were picked first, then a sample of the others. Calls follow the shape of the dose curve; as a rule, active = well fitted inhibition curve with a large enough effect; inconclusive = small, poorly fitted or top-dose-only effect; inactive = flat fitted curve, though single readings scatter. Where the call is inconclusive, the potency comes from a doubtful curve fit.

The molecules below were run against Luciferin 4-monooxygenase (Photinus pyralis) (UniProt P08659) (assay: qHTS profiling assay for firefly luciferase inhibitor/activator using purifed enzyme and Km concentrations of substrates (counterscreen for miR-21 project)). Conditions: purified FLuc, luminescence inhibition; series mostly up to 57.5 µM.
Method in brief: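 Purified P. pyralis luciferase (10nM final) with 10uM D-luciferin and 10uM ATP (Km levels) in 50mM Tris acetate pH 7.5, 10mM Mg acetate, 0.01% Tween-20, 0.05% BSA; qHTS 6-point titration, ~60 µM downward; luminescence read.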
Also: nearly all actives have a fitted effect of over 55% in size.
Potency is read from the fitted curve at half-maximal effect; tags tell the direction and shape of the fitted curve.

UniProt P08659, sequence (P08659 whole entry, looked up): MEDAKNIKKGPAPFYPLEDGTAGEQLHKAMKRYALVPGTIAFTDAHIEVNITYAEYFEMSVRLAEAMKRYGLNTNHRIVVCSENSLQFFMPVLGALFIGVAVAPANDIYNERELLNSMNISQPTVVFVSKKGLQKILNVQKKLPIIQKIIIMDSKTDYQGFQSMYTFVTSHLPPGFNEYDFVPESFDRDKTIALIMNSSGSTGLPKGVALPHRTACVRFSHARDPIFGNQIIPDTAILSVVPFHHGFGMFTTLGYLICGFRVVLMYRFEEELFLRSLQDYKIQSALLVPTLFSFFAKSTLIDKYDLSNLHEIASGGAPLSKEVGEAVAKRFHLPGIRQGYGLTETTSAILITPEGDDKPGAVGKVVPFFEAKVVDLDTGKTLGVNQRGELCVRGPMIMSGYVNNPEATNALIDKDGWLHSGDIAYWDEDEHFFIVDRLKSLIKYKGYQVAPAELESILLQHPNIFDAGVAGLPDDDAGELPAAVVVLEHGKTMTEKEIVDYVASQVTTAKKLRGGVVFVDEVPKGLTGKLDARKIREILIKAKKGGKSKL

Compound | Potency
Fc1ccc(NC(=S)Nc2ccc(Cl)cc2Cl)cc1 | inconclusive: 21.3 µM [inhibitor, single point]
CN(C)c1ccc(/C=N/NC(=O)c2ccnn2C)cc1 | active: 5.36 µM
CCCC(=O)N(C)c1nnc(-c2ccc(OC)cc2)s1 | active: 7.57 µM
Cc1ccnc(NC(=O)COc2ccccc2[N+](=O)[O-])c1 | active: 1.69 µM
CCC(C)NC(=O)CC(c1ccccc1)c1cc(C)ccc1O (stereo unspecified) | inactive
Cc1cc(=O)[nH]c(N/N=C/c2c[nH]c3ccccc23)n1 | inconclusive: 37.9 µM [inhibitor, partial curve, poor fit]
CC(C)(C)c1ccc(C(=O)NCC(=O)N/N=C/c2cccnc2)cc1 | inconclusive: 19 µM [inhibitor, partial curve, poor fit]
Cc1nc2c(C(=O)Nc3ccc(N4CCCC(O)C4)cc3)snc2c(=O)[nH]1 (stereo unspecified) | active: 3.01 µM
CC(=O)Nc1ccc(OCc2nnc(-c3ccc(Cl)cc3)o2)cc1 | inconclusive: 19 µM [inhibitor, partial curve]
COC(=O)c1ccc(NC(=O)CC2C(=O)N(c3cccc(OC)c3)C(=O)N2Cc2cccc(OC)c2)cc1 (stereo unspecified) | inactive
OCC1(CCc2ccccc2)CCN(Cc2cc(F)ccc2-n2cccn2)CC1 | inactive
CCOc1ccc2nc(N3CCCN(C(=O)Nc4ccccc4C)CC3)c(C#N)cc2c1 | inconclusive: 19 µM [inhibitor, partial curve]
COc1ccc(-c2cccc(NS(=O)(=O)c3cc(C)c(Cl)cc3C)c2)nn1 | inconclusive: 12 µM [inhibitor, partial curve]
CCCCC12CN3CC(C)(CN(C1)C3c1c(C)[nH]c(=O)[nH]c1=O)C2=O (stereo unspecified) | inactive
Cc1ccc(-c2nn(-c3ccccc3)cc2C(=O)NCCCN2CCOCC2)cc1 | inconclusive: 21.3 µM [inhibitor, partial curve, poor fit]
CC(C)Nc1nc(NC(C)C)nc(OCCOC(=O)Nc2ccccc2)n1 | inconclusive: 23.9 µM [inhibitor, partial curve]
Oc1ccc(-c2[nH]ncc2-c2cnn(-c3ccccc3)c2)c(O)c1 | inconclusive: 26.9 µM [inhibitor, partial curve, poor fit]
Cc1cc(NC(=O)CN(C)S(=O)(=O)c2ccc3c(c2)CCC(=O)N3)ccc1Br | inconclusive: 30.1 µM [inhibitor, partial curve, poor fit]
O=C(NCCc1ccccc1)c1ccccc1SCC(=O)N1CCCC1 | inconclusive: 33.8 µM [inhibitor, partial curve, poor fit]
Cc1cccc(C(CC(=O)NCC2(c3ccccc3)CCCC2)c2ccccc2)c1O (stereo unspecified) | inactive
Cc1ccc2occ(/C=N/NC(=O)c3ccccc3C)c(=O)c2c1 | inactive
CN(c1ccc(Cl)cc1)c1cc(=O)n(C)c2ccccc12 | inconclusive: 26.9 µM [inhibitor, single point]
O=C(COC(=O)COc1ccc(Cl)cc1Br)NCc1cccs1 | inconclusive: 37.9 µM [inhibitor, single point]
Cc1c(C(=O)NC(=S)Nc2ccc(NC(=O)c3cccs3)cc2)oc2ccccc12 | inconclusive: 10.7 µM [inhibitor, partial curve]

Compound | Potency
CCC(=O)NC(=S)NNC(=O)c1ccc(NC(=O)c2ccccc2)cc1 | inconclusive: 26.9 µM [inhibitor, single point]
Cc1ccc2nc(/C(C#N)=C/c3ccc(-c4cccc(Cl)c4)o3)[nH]c2c1 | inactive
CCC(C)c1ccc(NC(=O)c2[nH]c(C)c(C(C)=O)c2C)cc1 (stereo unspecified) | active: 19 µM
CCOc1ccc(NS(=O)(=O)c2ccc(C(=O)N(C)Cc3cccc(OC)c3OC)cc2)cc1 | inactive
Cc1cc(C(=O)N2CCCC(Nc3ccc(F)cc3)C2)c(C)o1 (stereo unspecified) | inactive
COc1ccc(-c2nnc(SCC(=O)NC(C)c3ccccc3)o2)cc1 (stereo unspecified) | inconclusive: 16.9 µM [inhibitor, partial curve]
O=C(Nc1ccc(S(=O)(=O)N2CCC(c3nc4ccccc4s3)CC2)cc1)c1ccccc1F | inactive
COc1ccc(N2C(=O)/C(=C/c3cccs3)NC2=S)cc1 | inconclusive: 15.1 µM [inhibitor, partial curve]
CC(=O)c1ccc[n+](CC(=O)NC(C)c2ccccc2)c1 (stereo unspecified) | inactive
c1ccc(NC2=Nc3ccccc3CS2)cc1 | active: 2.69 µM
Nc1nc2c(Cl)cc(Cl)cc2s1 | inconclusive: 26.9 µM [inhibitor, partial curve, poor fit]
CCOc1ccccc1/C=N/NC(=O)CNC(=O)c1cccs1 | inconclusive: 19 µM [inhibitor, single point]
CCC1CN(C(=O)Nc2cccc3c2CCCC3)c2cc(C)ccc2O1 (stereo unspecified) | inconclusive: 21.3 µM [inhibitor, partial curve]
Cc1ccc(-n2cc(CN3CCN(Cc4nccn4C)CC3)c(-c3ccc(F)cc3)n2)cc1 | inconclusive: 21.3 µM [inhibitor, single point]
Cn1cc([N+](=O)[O-])c(C(=O)Nc2ccc3c(c2)OCCO3)n1 | active: 16.9 µM
Cc1cc(=O)[nH]c(SCC(=O)Nc2nc3ccccc3s2)n1 | inconclusive: 26.9 µM [inhibitor, partial curve]
Cc1cccc(/C=C/c2onc(C)c2S(=O)(=O)N2CCC(C(=O)NC(C)C)CC2)c1 | inactive
COc1ccc(Nc2nnc(-c3ccc(C)c(S(=O)(=O)N4CCOCC4)c3)c3ccccc23)cc1 | inconclusive: 8.49 µM [inhibitor, full curve]
Cc1cccc(NC(=O)c2c(Br)sc3c2CCCC3)c1 | inconclusive: 15.1 µM [inhibitor, partial curve, poor fit]
CC(=O)c1cccc(OCCCOc2cccc3cccnc23)c1 | inconclusive: 26.9 µM [inhibitor, partial curve, poor fit]
Cc1ccc(-c2nnc(Nc3ccc4c(c3)nc(C)n4C)c3ccccc23)cc1 | inconclusive: 19 µM [inhibitor, partial curve]
CC(C)(C)C(=O)Nc1ccc(NC(=O)C(C)(C)C)cc1 | inactive
COc1ccccc1N1CCN(C(=O)CSc2nc(-c3ccc(C(C)C)cc3)no2)CC1 | active: 2.13 µM
O=C(COC(=O)Cc1cn2ccsc2n1)Nc1nc2ccccc2s1 | inconclusive: 19 µM [inhibitor, partial curve, poor fit]

Compound | Potency
COc1cc(/C=C\C(=O)NCc2ccc3[nH]c(C)cc3c2)cc(OC)c1OC | inconclusive: 21.3 µM [inhibitor, partial curve, poor fit]
CC(=O)c1cccc(NC(=O)c2ccc(OC3CSC3)cc2)c1 | inconclusive: 3.01 µM [inhibitor, full curve, poor fit]
Cc1ccc(S(=O)(=O)n2cc(-c3ccccc3)c3ccccc32)cc1 | inactive
O=C(Nc1ccc2c(c1)CCCN2C(=O)c1ccccc1)c1ccccc1Br | inconclusive: 37.9 µM [inhibitor, partial curve, poor fit]
COc1ccc(C)cc1NC(=O)CN(C)C1CCCCC1 | inactive
COc1ccc(-c2noc(-c3ccccc3NC(=O)c3cc(OC)c(OC)c(OC)c3)n2)cc1 | inactive
CCCN1CCN(C(=S)Nc2ccc([N+](=O)[O-])cc2)CC1 | inconclusive: 16.9 µM [inhibitor, partial curve, poor fit]
CC1CCN(c2ccc([N+](=O)[O-])cc2C(=O)NCC2CCCO2)CC1 (stereo unspecified) | inactive
COCCNC(=S)Nc1ccc(S(=O)(=O)Nc2cnc3ccccc3n2)cc1 | inconclusive: 21.3 µM [inhibitor, partial curve, poor fit]
Cc1cnc(NC(=O)CSc2ccc(Cl)cc2)s1 | inconclusive: 23.9 µM [inhibitor, single point]
Clc1ccccc1Sc1cnc2ccccc2n1 | inconclusive: 37.9 µM [inhibitor, single point]
O=S(=O)(Nc1nc2n(n1)C(c1ccccc1)C=C(c1ccc(Cl)cc1)N2)c1ccccc1 (stereo unspecified) | inconclusive: 10.7 µM [inhibitor, partial curve]
COc1ccc(C(=O)COC(=O)CCCC(=O)NC2CCCCC2)cc1 | inconclusive: 33.8 µM [inhibitor, single point]
CN(C(=O)c1cc2c(=O)n3ccccc3nc2n1C)C1CCCCC1 | active: 12 µM
Cc1cccc(-c2cc3nc(C)cc(C)n3n2)c1 | active: 6.75 µM
Cc1ccc(CNC(=O)CN(c2cc(C)cc(C)c2)S(=O)(=O)c2c(C)[nH]c(=O)[nH]c2=O)cc1 | inconclusive: 10.7 µM [inhibitor, partial curve, poor fit]
Cc1cc(-c2cc(-c3ccc(Cl)cc3)nc(N)c2C#N)co1 | inconclusive: 8.49 µM [inhibitor, partial curve, poor fit]
CCc1ccc(C2c3c(n[nH]c3C)C(=O)N2c2ccc(C)cc2)cc1 (stereo unspecified) | inconclusive: 9.53 µM [inhibitor, partial curve, poor fit]
CC1CN(c2ccccc2)c2nc3c(c(=O)[nH]c(=O)n3C)n2C1 (stereo unspecified) | inactive
CCOc1ccc(-c2ccc(CO)o2)cc1N | active: 15.1 µM
N#Cc1c(C#N)c(O)c2ccccc2c1O | inconclusive: 19 µM [inhibitor, partial curve, poor fit]
O=C(NNC(=O)c1ccc(Br)cc1)c1ccncc1 | inconclusive: 21.3 µM [inhibitor, partial curve, poor fit]
O=C(Cn1cnc2c(cnn2-c2ccccc2)c1=O)N1CCCc2ccccc21 | inactive
